B1: bifunctional fusion protein CS001 (Fc fusion)
chain: QVQLVESGGGLVQPGGSLRLSCAASGSIFNIPVMGWYRQAPGKQRELVAGISTGGTTNYGDSVKGRFTISRDNAKNTVYLQMNSLKPEDTAVYYCNVLVVSGIGSTLEVWGQGTLVTVSS[sequence of human IgG1 Fc omitted]GGGGSGGGGSELQVIQPDKSVLVAAGETATLRCTATSLLPVGPIQWFRGAGPGRQLIYNQKDGHFPRVTTASDLTKRNNMDFSINIGAITPADAGTYYCVKFRKGSPDDIEFKSGAGTELSVRAKPS
notes: also called NA3S-H1 - linker - M91N
B2: bifunctional fusion protein CS002 (Fc fusion)
chain: QVQLVESGGGLVQPGGSLRLSCAASGSIFNIPVMGWYRQAPGKQRELVAGISTGGTTNYGDSVKGRFTISRDNAKNTVYLQMNSLKPEDTAVYYCNVLVVSGIGSTLEVWGQGTLVTVSS[sequence of human IgG1 Fc omitted]GGGGSGGGGSELQVIQPDKSVLVAAGETATLRCTATSLIPVGPIQWFRGAGPGRELIYNQKEGHFPRVTTVSDLTKRNNMDFSIRIGAITPADAGTYYCVKFRKGSPDDVEFKSGAGTELSVRAKPS
notes: also called NA3S-H1 - linker - 002N
B3: bifunctional fusion protein CS003 (Fc fusion)
chain: QVQLVESGGGLVQPGGSLRLSCAASGSIFNIPVMGWYRQAPGKQRELVAGISTGGTTNYGDSVKGRFTISRDNAKNTVYLQMNSLKPEDTAVYYCNVLVVSGIGSTLEVWGQGTLVTVSS[sequence of human IgG1 Fc omitted]GGGGSGGGGSELQVIQPDKSVLVAAGETATLRCTATSLVPVGPIQWFRGAGPGRNLIYNSRHGHFPRVTTVSDLTKRNNMDFSIRIGAITPADAGTYYCVKFRKGSPDDVEFKSGAGTELSVRAKPS
notes: also called NA3S-H1 - linker - M5N

For the assay, the target named is T1, CD47 Protein, Human, Recombinant (ECD, His Tag), Sino Biological (human, UniProt Q08722 part only).
T1 construct: extracellular domain; Bought reagent, coated on the ELISA plate; not shown: His tag
T1 sequence (Q08722 19-139 limits assumed): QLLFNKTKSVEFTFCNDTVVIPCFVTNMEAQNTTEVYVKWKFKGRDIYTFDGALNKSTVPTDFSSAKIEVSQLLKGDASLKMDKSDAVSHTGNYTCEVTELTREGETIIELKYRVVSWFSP
The experiment in a line: ELISA, CD47 ECD-His coated, anti-human IgG Fc-HRP. In general terms: ELISA stands for enzyme-linked immunosorbent assay.
Consider B1, for which the binding result was “binds”.
In the case of B2, the binding result is “binds”.
Then B3, with “binds”.
